Laboratory results reported in PMC3632089.
No constants are given. Whether binding was seen depends on the method and setting. In cells and extracts the contact can be indirect. Some entries that bind do so weakly or less than the wild type. Tags and fused reporters may be left off the sequences shown.

Sequences of proteins named here, by UniProt entry; tags and fusion partners are left off.
UniProt Q9H4A3: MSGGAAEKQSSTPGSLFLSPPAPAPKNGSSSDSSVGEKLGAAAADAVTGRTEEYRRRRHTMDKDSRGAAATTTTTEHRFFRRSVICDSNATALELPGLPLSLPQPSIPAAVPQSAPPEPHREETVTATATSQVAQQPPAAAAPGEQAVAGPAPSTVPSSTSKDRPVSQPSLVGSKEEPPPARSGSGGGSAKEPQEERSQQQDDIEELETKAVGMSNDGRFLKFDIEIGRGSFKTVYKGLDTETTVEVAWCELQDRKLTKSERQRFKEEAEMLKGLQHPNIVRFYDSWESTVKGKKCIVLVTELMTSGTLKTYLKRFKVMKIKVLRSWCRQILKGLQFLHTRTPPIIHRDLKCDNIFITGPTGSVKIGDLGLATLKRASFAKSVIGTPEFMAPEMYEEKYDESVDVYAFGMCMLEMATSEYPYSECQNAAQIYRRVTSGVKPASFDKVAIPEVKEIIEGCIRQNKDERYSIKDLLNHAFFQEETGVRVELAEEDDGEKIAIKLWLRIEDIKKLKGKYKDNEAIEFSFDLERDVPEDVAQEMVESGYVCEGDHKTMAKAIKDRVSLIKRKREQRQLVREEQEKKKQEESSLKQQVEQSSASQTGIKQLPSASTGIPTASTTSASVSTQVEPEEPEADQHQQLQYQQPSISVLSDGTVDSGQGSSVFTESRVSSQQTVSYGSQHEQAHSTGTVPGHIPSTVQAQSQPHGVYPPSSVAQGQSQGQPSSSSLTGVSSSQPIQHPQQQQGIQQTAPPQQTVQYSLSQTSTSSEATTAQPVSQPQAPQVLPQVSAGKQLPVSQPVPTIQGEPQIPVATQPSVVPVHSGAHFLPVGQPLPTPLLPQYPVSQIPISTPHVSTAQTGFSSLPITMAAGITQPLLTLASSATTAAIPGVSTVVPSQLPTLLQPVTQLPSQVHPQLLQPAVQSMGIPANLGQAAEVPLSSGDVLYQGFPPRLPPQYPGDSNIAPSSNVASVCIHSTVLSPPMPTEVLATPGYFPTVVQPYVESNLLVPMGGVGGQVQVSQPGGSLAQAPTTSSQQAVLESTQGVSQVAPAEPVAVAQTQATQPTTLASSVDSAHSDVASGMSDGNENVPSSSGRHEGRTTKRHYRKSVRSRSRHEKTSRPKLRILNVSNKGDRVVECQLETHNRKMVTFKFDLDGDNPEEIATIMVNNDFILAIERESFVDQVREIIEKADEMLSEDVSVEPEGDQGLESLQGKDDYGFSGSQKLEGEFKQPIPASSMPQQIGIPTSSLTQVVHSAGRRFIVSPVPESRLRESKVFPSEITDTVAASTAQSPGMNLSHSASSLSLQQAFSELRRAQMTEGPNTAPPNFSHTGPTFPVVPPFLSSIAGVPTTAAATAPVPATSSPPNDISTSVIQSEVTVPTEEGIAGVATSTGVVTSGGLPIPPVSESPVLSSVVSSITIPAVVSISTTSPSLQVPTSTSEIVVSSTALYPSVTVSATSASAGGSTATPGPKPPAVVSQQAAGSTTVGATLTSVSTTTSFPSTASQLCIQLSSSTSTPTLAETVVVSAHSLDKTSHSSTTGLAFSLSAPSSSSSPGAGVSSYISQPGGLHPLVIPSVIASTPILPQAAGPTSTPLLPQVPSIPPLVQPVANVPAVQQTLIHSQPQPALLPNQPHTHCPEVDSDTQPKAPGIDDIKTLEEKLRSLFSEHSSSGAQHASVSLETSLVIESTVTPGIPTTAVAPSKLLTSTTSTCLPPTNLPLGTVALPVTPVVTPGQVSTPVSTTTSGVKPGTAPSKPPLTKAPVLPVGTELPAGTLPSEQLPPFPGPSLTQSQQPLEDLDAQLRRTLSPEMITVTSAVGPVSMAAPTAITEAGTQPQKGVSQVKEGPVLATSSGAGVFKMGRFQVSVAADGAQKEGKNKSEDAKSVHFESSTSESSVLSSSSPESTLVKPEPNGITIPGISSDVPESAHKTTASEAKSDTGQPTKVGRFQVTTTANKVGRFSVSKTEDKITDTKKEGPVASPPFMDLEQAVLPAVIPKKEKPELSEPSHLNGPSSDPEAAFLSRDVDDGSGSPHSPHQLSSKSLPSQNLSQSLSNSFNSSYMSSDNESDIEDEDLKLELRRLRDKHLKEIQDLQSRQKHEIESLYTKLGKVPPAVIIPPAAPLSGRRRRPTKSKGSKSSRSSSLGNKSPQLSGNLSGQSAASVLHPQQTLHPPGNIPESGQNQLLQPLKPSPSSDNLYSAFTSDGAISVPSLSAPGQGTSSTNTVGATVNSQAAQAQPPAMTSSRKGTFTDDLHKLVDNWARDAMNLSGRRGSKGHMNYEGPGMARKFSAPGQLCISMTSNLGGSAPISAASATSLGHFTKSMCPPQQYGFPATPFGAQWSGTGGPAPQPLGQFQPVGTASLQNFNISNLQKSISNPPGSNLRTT
UniProt O95747: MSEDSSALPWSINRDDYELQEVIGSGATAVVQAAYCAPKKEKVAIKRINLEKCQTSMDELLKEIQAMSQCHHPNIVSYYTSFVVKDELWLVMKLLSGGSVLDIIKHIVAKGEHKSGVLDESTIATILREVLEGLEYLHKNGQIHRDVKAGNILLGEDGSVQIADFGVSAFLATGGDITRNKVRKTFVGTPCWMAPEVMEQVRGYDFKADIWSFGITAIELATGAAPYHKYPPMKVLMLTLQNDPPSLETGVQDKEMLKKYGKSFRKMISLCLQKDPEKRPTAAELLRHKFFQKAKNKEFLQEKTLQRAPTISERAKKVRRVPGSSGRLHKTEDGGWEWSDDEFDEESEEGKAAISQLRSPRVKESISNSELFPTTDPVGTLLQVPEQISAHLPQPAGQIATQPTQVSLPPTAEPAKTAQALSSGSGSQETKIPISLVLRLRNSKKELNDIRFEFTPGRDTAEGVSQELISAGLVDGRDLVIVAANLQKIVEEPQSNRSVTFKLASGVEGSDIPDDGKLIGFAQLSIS

Key:
Assay in all cases: co-IP; endogenous WNK1, SPAK/OSR1 or NKCC1 immunoprecipitated from 0.2 mg HEK-293 extract with antibodies coupled to Protein G-Sepharose; immunoblot for FLAG-KLHL3
[1] = molecular target: WNK1 (with no lysine kinase 1), endogenous (human (endogenous in HEK-293)) (UniProt Q9H4A3)
[2] = molecular target: OSR1 (oxidative stress-responsive kinase 1), endogenous (human (endogenous in HEK-293)) (UniProt O95747)
[3] = molecular target: T1, NKCC1 (Na+/K+/2Cl- co-transporter 1), endogenous (human (endogenous in HEK-293)) (UniProt P55011)
T1 sequence: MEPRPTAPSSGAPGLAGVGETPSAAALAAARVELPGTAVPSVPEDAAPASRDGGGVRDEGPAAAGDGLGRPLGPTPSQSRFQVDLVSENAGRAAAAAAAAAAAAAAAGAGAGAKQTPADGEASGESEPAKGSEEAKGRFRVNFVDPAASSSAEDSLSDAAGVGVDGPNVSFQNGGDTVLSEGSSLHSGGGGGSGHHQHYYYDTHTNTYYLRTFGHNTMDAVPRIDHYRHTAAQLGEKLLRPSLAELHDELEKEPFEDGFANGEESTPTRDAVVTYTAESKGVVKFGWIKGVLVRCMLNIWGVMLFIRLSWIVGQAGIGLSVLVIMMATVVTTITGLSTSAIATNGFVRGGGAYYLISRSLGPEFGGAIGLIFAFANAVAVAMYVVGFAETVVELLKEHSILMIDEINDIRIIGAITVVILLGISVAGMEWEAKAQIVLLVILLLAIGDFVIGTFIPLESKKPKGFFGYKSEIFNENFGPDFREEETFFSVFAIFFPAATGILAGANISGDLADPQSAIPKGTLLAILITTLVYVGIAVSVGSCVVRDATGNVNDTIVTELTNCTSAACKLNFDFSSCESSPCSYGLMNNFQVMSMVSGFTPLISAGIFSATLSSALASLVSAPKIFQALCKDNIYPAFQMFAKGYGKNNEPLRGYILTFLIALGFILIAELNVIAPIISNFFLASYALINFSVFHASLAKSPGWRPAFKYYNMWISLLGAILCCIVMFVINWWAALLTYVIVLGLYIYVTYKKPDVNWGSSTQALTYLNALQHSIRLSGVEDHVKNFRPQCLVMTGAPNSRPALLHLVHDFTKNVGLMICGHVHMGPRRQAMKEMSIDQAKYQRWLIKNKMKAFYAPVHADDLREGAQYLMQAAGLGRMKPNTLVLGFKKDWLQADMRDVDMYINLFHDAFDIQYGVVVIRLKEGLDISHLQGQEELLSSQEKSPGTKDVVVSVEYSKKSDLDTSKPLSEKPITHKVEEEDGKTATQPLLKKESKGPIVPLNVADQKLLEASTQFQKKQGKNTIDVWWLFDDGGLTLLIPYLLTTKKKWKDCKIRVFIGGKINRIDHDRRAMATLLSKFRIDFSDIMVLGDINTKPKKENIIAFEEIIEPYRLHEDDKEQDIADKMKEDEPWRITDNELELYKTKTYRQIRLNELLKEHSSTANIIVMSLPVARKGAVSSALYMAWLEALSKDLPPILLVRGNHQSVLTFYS

- binding [1]: binds
- binding [2]: no binding
- binding [3]: no binding
B1: FLAG-tagged wild-type KLHL3 (Kelch-like 3) (protein, UniProt Q9UH77-1 1-587)
chain: MEGESVKLSSQTLIQAGDDEKNQRTITVNPAHMGKAFKVMNELRSKQLLCDVMIVAEDVEIEAHRVVLAACSPYFCAMFTGDMSESKAKKIEIKDVDGQTLSKLIDYIYTAEIEVTEENVQVLLPAASLLQLMDVRQNCCDFLQSQLHPTNCLGIRAFADVHTCTDLLQQANAYAEQHFPEVMLGEEFLSLSLDQVCSLISSDKLTVSSEEKVFEAVISWINYEKETRLEHMAKLMEHVRLPLLPRDYLVQTVEEEALIKNNNTCKDFLIEAMKYHLLPLDQRLLIKNPRTKPRTPVSLPKVMIVVGGQAPKAIRSVECYDFEEDRWDQIAELPSRRCRAGVVFMAGHVYAVGGFNGSLRVRTVDVYDGVKDQWTSIASMQERRSTLGAAVLNDLLYAVGGFDGSTGLASVEAYSYKTNEWFFVAPMNTRRSSVGVGVVEGKLYAVGGYDGASRQCLSTVEQYNPATNEWIYVADMSTRRSGAGVGVLSGQLYATGGHDGPLVRKSVEVYDPGTNTWKQVADMNMCRRNAGVCAVNGLLYVVGGDDGSCNLASVEYYNPVTDKWTLLPTNMSTGRSYAGVAVIHKSL
